Source: paper PMC1363732
No constants are given. Whether binding was seen depends on the method and setting. For some assays here: In cells and extracts the contact can be indirect. Some binding calls cover weakened binding; strength is not graded here. For some assays here: Tags and fused reporters may be left off the sequences shown.

Assays:
GST-SUV39H1 ΔN89 (human) = GST-SUV39H1 ΔN89 (human) (UniProt O43463); assay: pull-down; wild type or mutant GST-SUV39H1 or GST (2 ug) bound to Glutathione-Sepharose 4B, mixed with His-tagged Tax (2 ug) in cold PBS, 4°C, one hour; immunoblot with Lt-4; band intensities by NIH Image; both purified
[1] = molecular target: bacterially expressed GST-SUV39H1, wild type (human) (UniProt O43463); assay: as above
[2] = molecular target: GST-SUV39H1 cycSET (human) (UniProt O43463); assay: as above
GST-SUV39H1 N44 (human) = GST-SUV39H1 N44 (human) (UniProt O43463); assay: as above
[3] = molecular target: T1, GST-tagged SUV39H1 (pMEG-SUV39H1) (human) (UniProt O43463); assay: pull-down; HEK293T cells co-transfected with GST-SUV39H1 or GST and Tax; after 48 h lysate affinity purified with Glutathione Sepharose 4B; immunoblot with anti-Tax Lt-4
T1 sequence: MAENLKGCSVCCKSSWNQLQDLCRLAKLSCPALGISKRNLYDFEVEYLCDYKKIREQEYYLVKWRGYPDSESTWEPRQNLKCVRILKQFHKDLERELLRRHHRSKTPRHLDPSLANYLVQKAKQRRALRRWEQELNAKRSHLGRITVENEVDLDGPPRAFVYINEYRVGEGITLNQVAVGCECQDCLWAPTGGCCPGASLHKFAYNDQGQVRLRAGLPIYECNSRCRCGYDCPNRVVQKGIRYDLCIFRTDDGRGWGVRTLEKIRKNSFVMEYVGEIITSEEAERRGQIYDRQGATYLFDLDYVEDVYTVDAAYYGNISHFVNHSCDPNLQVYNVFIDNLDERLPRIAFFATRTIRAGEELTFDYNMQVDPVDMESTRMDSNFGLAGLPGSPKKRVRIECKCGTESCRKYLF

Substance: histidine-tagged wild type Tax (His-Tax) (from UniProt P03409 1-353)
- binding (GST-SUV39H1 ΔN89 (human)): binds
- binding [1]: binds
- binding [2]: binds
- binding (GST-SUV39H1 N44 (human)): no binding

Substance: wild type HTLV-1 Tax (pCG-Tax) (from UniProt P03409 1-353)
- binding [3]: binds
